Assay results published in PubChem BioAssay AID2060603 (Molecular Pharmacology Branch, DTP, NCI, 2025).
Some entries of the source have several records that differ or are many. The list is limited to them. There may be further records. The records of an entry repeat one measurement across runs, samples, wells, individuals or studies. Signs of the kind (2×) count equal records among those shown.

Test system: 422866-222-R5-J1-PDC spheroid viability
Experiment: Anticancer human tumor 422866-222-R5-J1-PDC patient-derived pancreatic adenocarcinoma cell line growth inhibition [CLK]
Details: stronger effect = lower value, spheroids with HUVEC and MSC
Source text: A high-throughput screen of multi-cell type tumor spheroids was designed to identify active combinations of […] and targeted small molecules. Complex spheroids include a stromal component modeled by human endothelial cells (HUVEC) and fibroblasts modeled by human mesenchymal stem cells (MSCs). The concentration ranges selected for each drug and investigational agent were based upon clinically achievable concentrations if the clinical Cmax of the agent was known.
Compounds. The drugs and investigational agents: cirtuvivint (SM08502; NSC835563), CC-671 (NSC850746), vemurafenib (NSC761431), tapotoclax (NSC804041), sotorasib (NSC818433), adagrasib (NSC831453), MRTX-1133 (NSC836407), BAY2416964 (NSC825713), copanlisib (NSC816437), inavolisib (NSC800729), abemaciclib (NSC768073), osimertinib (NSC779217), entinostat (NSC756642), eltanexor (KPT-8602, NSC794443), venetoclax (NSC766270), ceralasertib (NSC777638), bortezomib (NSC756655), olaparib (NSC753686), talazoparib (NSC767125), alisertib (NSC759677), peposertib (NSC802822), gemcitabine (NSC613327), 5-fluorouracil (NSC19893), SN-38 (NSC673596), oxaliplatin (NSC266046), paclitaxel (NSC125973), and doxorubicin (NSC123127), were obtained from the National Cancer Institute (NCI) Developmental Therapeutics Program Chemical Repository. The FDA-approved anticancer drug set is available from the Developmental Therapeutics Program at https://dtp.cancer.gov/organization/dscb/obtaining/available plates.htm. […] The stock solutions were prepared in dimethyl sulfoxide (DMSO, Sigma-Aldrich, St. Louis, MO, cat. D2650), except for the platinum complexes which were prepared in saline (Quality Biological, Gaithersburg, MD, cat. 114-055-101), at 800-fold the tested concentration and stored at -70 degrees C prior to their use. All drugs and investigational agents were tested over a range starting from a high concentration at or near the clinical Cmax and decreasing in half-log increments. If the clinical Cmax for an agent had not been determined, the highest concentration tested was 10 microM.
Cell Culture. All cells were maintained in an incubator at 37 degrees C and 5% CO2 with 95% humidity. The PDC lines were cultured according to standard operating procedures established by the NCI PDMR. Briefly, all PDCs were thawed and cultured in Matrigel-coated flasks prepared with a working solution of 1X Ham's F-12 nutrient mix, without supplementation (Invitrogen, Waltham, MA, cat. 11765054), 100 U/mL penicillin-streptomycin (Invitrogen, cat. 15140122), and 2.5% Matrigel (Corning Inc., Corning, NY, cat. 354248) for the first three passages. […]
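Also: spheroids exposed to agents for seven days before readout.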

| SMILES | viability, T/C (compound alone 10 µM) | viability, T/C (compound alone 0.0316 µM) | viability, T/C (compound alone 0.1 µM) | viability, T/C (compound alone 0.316 µM) |
| --- | --- | --- | --- | --- |
| CNC(=O)c1ccc(Nc2nc(OC3CCCC3)c3c(-c4ccc5nc(C)oc5c4)c[nH]c3n2)c(OC)c1 | 65.7, 78.5, 71.1, 71.3, 73.7, 63.7, 67.9, 65, 68.1, 68.2, 62.2, 87.5% | – | – | – |
| CN1CCN(c2cc(C(=O)Nc3cc4cc(-c5cnn(C)c5)ccc4cn3)ccn2)CC1 | – | 100, 106 (2×), 95.9, 98.7, 105, 86.1, 95.3, 90.3, 110, 114, 107% | 103 (2×), 105 (2×), 112, 92.9, 90.9, 102, 111, 117, 116, 101% | 82.9, 91.2, 80.5, 88.2, 92.4, 89.2, 90, 89, 93.9, 105 (2×), 109% |
